Data on 15 compounds can be found in PubChem BioAssay (NCI).

Structures are written as SMILES.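 Where inhibition never reached the appropriate level, the endpoint shown equals the highest concentration tested. Otherwise, values were interpolated linearly from a five-concentration, 48-hour dose response in 96-well plates. GI50: concentration for 50% inhibition of growth. TGI marks complete inhibition of growth.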 Bounds are passed on as bounds.

The assay deals with NCI-H322M lung. Put plainly: inhibition of tumour cell growth, NCI panel, 48 h.

Compound `C=C1[C@@](C)([C@@H]2CCCS2)[C@H]2C(C)=C[C@]1(C)n1c(=O)n(-c3ccccc3)c(=O)n12` came in with a TGI of more than 100 µM. The compound `O=C1C(=O)N(c2ccc(Cl)cc2)C(=O)C(=O)C1c1nc2ccccc2s1` came in with a TGI of more than 100 µM. With `COc1cccc(/C(Cl)=C(\C=O)c2cccc(OC)c2)c1`, the TGI amounted to 28 µM. For the compound `CS(=O)(=O)c1nc(-c2cc3c(c(S(C)(=O)=O)n2)CCC3)cc2c1CCCC2`, the TGI was more than 100 µM. With `COC(=O)C12CC(NC(=O)c3csc([C@@H](C[C@H](C(C)C)N(C)C(=O)[C@@H](NC(=O)[C@H]4CCCCN4C)C4CC4)OC(C)=O)n3)(C1)C2`, the GI50 is 0.0747 µM and the TGI is more than 16.7 µM. As to `COc1ccc2c(c1OC)-c1c(c3ccc([N+](=O)[O-])cc3c(=O)n1CCCBr)C2=O`, the GI50 was more than 100 µM and the TGI was more than 100 µM. `Cn1c([C@H](C#N)C(=O)c2cc(O)ccc2[N+](=O)[O-])nc2ccccc21`: the TGI was more than 100 µM. With `COc1ccc(Nc2nc3ccccc3c3occc23)cc1`, the GI50 is 5.15 µM and the TGI worked out at 39.6 µM.

On to `CC1(C)CC2(C)CC1CC2(O)c1ccccc1` (centres undefined), for which the TGI is more than 100 µM. Same read-out and setting: to `Cc1ccc(-c2cc(O)c3nc4ccccc4n3c2)cc1` belongs more than 100 µM.

Take `[O-]c1ccccc1C=Nc1ccc2c(c1)CCC2.[O-]c1ccccc1C=Nc1ccc2c(c1)CCC2.[O]=[U+2]=[O]`: the GI50 is more than 100 µM and the TGI was more than 100 µM. Regarding `Cc1ccc(-n2cc(-c3ccc(Cl)cc3)c3c(NN)ncnc32)cc1`, the TGI was 14.3 µM.

As to `C[Si](C)(c1ccc(C(=O)O)cc1)c1ccc(C(=O)O)cc1`, the TGI was more than 100 µM. Regarding `COc1ccc(C(Cc2ccccc2)C2NC(=S)NC2=O)cc1` (centres undefined), the TGI is more than 25 µM. The compound `O=C(O)c1cc(=O)c2c([nH]c3ccccc32)s1` yielded a TGI of more than 100 µM.
